# Measured values taken from PubChem BioAssay AID652104 (National Center for Advancing Translational Sciences (NCATS), 2013).
# Among all 410,000 compounds or so, about 7,200 (1.8%) were called active. This list was built around the results that the source calls inconclusive (neither active nor inactive); the mix of calls is not that of the screen. The call rests on the fitted dose curve; in most records, active means well fitted activation curve with a large enough effect; inconclusive means small, poorly fitted or top-dose-only effect, or another doubt; inactive means no such curve, though single readings can be large or run the other way. No potency is given beside an inconclusive call; the fits are too rough.
# Assay: qHTS of TDP-43 Inhibitors; further: nearly all actives have a fitted effect of over 50% in size
# Conditions: TDP-43 expressing yeast growth rescue, BacTiter-Glo, 24 h; series mostly up to 46.1 µM
# Method in brief: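 Yeast expressing TDP-43 (pregrown in raffinose, seeded at OD600=0.02 in galactose medium) exposed to compounds 24 hr at 30 deg C. Growth read by BacTiter-Glo luminescence; rescue of toxicity appears as increased signal.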
# Potency means the concentration at half of the fitted maximal effect; tags describe the fitted curve by direction and shape.
row,Structure (SMILES),Potency
1,COc1cccc(NC(=O)c2cnsn2)c1,active: 12.6 µM
2,O=C(CNC(=O)c1ccc(Cl)cc1Cl)OCCOc1ccccc1F,"inconclusive [activator, single point]"
3,CS(=O)(=O)Nc1ccc2c(c1)[C@H]1C[C@H](CC(=O)NCc3ccccc3)O[C@H](CO)[C@H]1O2,"inconclusive [activator, full curve]"
4,Cc1oc(-c2ccccc2)nc1C(=O)OCC(=O)NCc1ccc(Cl)cc1,inactive
5,Cc1cc(C)c(S(=O)(=O)N2CCCCC2)c(C)c1N(C)S(=O)(=O)c1ccccc1,"inconclusive [activator, partial curve, poor fit]"
6,C=CCn1c(N)c(C(=O)Nc2ccccc2OC)sc1=S,"inconclusive [activator, single point]"
7,CN(C)CCN(Cc1ccccc1)c1ccnc(N(C)C)c1C#N,inactive
8,CC(C)OCCCNC(=S)N1CCC(C(=O)c2ccc(F)cc2)CC1,"inconclusive [activator, partial curve, poor fit]"
9,COCc1c(C(=O)Nc2nc(C)cs2)oc2ccccc12,"inconclusive [activator, partial curve]"
10,Cn1cnc([N+](=O)[O-])c1Sc1ccccc1,"inconclusive [activator, single point]"
11,c1csc(-c2nc3c4ccccc4c4ccccc4c3[nH]2)c1,active: 20 µM
12,c1ccc(Oc2cc(-n3cccn3)ncn2)cc1,"inconclusive [activator, single point]"
13,COC(=O)c1sccc1S(=O)(=O)N1CCN(c2cccc(C)c2C)CC1,"inconclusive [activator, partial curve, poor fit]"
14,C[C@@]12C(=O)Nc3ccc(F)cc3C(=O)N1[C@H]1c3cc(Cl)ccc3OC[C@@H]1[C@@H]2c1ccccc1,active: 17.8 µM
15,O=C(Nc1ccc(Cl)cc1F)c1cccc2ccccc12,"inconclusive [activator, partial curve]"
16,O=C1CC(c2ccccc2)Cc2[nH]c(=O)c(-c3nc(-c4cccc(Cl)c4)cs3)cc21 (centres undefined),"inconclusive [activator, partial curve]"
17,COc1ccccc1N1CCN(C(=O)c2cccc(NC3=NC4CS(=O)(=O)CC4S3)c2)CC1 (centres undefined),"inconclusive [activator, full curve, poor fit]"
18,CCOC(=O)Cn1c(=O)oc2cc(S(=O)(=O)NCc3ccc(F)cc3)ccc21,inactive
19,NC(=O)c1ccccc1NC(=O)CC12CC3CC(CC(Br)(C3)C1)C2,inactive
20,COc1ccc(OC)c(S(=O)(=O)N2Cc3ccccc3CC2C(=O)Nc2ccc(C(C)=O)cc2)c1 (centres undefined),"inconclusive [activator, partial curve, poor fit]"
21,CCN(Cc1ccc(OC)cc1)c1ccc(-c2nc(-c3ccncc3)no2)cc1[N+](=O)[O-],"inconclusive [activator, single point]"
22,CCc1ccc(OCC2c3cc(OC)c(OC)cc3CCN2C(=S)NC)cc1 (centres undefined),"inconclusive [activator, single point]"
23,N#CC(=C1C=C(Br)C(=NO)C=C1Cl)c1ccc(Cl)cc1,"inconclusive [activator, partial curve]"

row,Structure (SMILES),Potency
1,CC1CCC(NC(=O)c2cccc(S(=O)(=O)NCc3ccccc3)c2)CC1 (centres undefined),"inconclusive [activator, single point]"
2,Cc1cc(Cl)ccc1OCC(=O)NC(=S)Nc1ccccc1N1CCOCC1,inactive
3,CC(C)(C)C(=O)/C(=C/c1ccc(Cl)cc1)n1cncn1,"inconclusive [activator, single point]"
4,CCOC(=O)NC(=S)Nc1ccc(C(C)(C)C)cc1Br,"inconclusive [activator, single point]"
5,Cc1occc1C(=O)Nc1nnc(-c2cccs2)s1,inactive
6,Cn1nc(-c2ccc(Cl)cc2)c2cc(C(=O)NCC3CCCO3)sc21 (centres undefined),active: 22.4 µM
7,Cc1cn2c(-c3ccc(Cl)cc3)nnc2s1,"inconclusive [activator, partial curve]"
8,COCCCn1c(=O)c2ccccc2n(Cc2cccc(C)c2)c1=O,"inconclusive [activator, single point]"
9,Cc1ccccc1NC(=O)Cn1c(=O)n(Cc2ccc3c(c2)OCO3)c(=O)c2oc3ccccc3c21,"inconclusive [activator, partial curve]"
10,CCCCOc1ccc(C(=O)N2CCN(c3ncccn3)CC2)cc1,"inconclusive [activator, single point]"
11,COC(=O)C1CCC(=S)N1C(=O)c1ccccc1 (centres undefined),"inconclusive [activator, single point]"
12,Cc1ccc(CN(Cc2ccco2)c2cnc(S(C)(=O)=O)nc2C(=O)Nc2ccc(Br)cc2)o1,inactive
13,COc1ccc(OC)c(CCNC(=O)CCn2c(=O)c3cccn3c3cccnc32)c1,inactive
14,O=C(CSc1ncnc2sc3c(c12)CCCC3)c1ccco1,active: 10 µM
15,CC(=O)Oc1ccc2nc(/C=C/c3ccccc3)oc(=O)c2c1,active: 3.55 µM
16,O=[N+]([O-])c1cc(C=NN2CCCCCC2)ccc1Cl,"inconclusive [activator, single point]"
17,Cn1c(C(=O)NCc2ccc3c(c2)OCO3)cc2sccc21,"inconclusive [activator, single point]"
18,CCOc1ccc(C(=O)OCC(=O)Nc2cccnc2Cl)cc1OCC,"inconclusive [activator, partial curve]"
19,CCOc1ccc(S(=O)(=O)NCCc2sc(-c3ccc(C)cc3)nc2C)cc1,"inconclusive [activator, single point]"
20,CCc1ccccc1N1CC(c2nc3ccccc3n2Cc2cccc(C)c2)CC1=O (centres undefined),"inconclusive [activator, single point]"
21,O=C(Nc1sc2c(c1C(=O)NCc1ccccc1)CCCC2)c1cc(=O)c2cc(Cl)ccc2o1,inactive
22,CC(C)(C)OC(=O)[C@H](NC(=O)OCc1ccccc1)c1ccccc1,"inconclusive [activator, partial curve]"
23,Cc1ccccc1OCc1nnc(SCC(=O)Nc2ccc3nc(SCC(=O)Nc4ccccc4)sc3c2)n1C,"inconclusive [activator, partial curve]"

row,Structure (SMILES),Potency
1,O=C(c1ccccc1)N1CCN(c2ccc([N+](=O)[O-])c(NCc3ccco3)c2)CC1,"inconclusive [activator, single point]"
2,O=C(Nc1ccccc1-c1ccccc1)c1cccs1,"inconclusive [activator, single point]"
3,CSc1ccc(CCNC(=O)c2cc3n(n2)CCCN(Cc2ccc(C)cc2)C3=O)cc1,inactive
4,CN1C(=O)c2ccc(NC(=S)NC(=O)C(C)(C)C)cc2C1=O,"inconclusive [activator, full curve]"
5,N/C(=N\OC(=O)c1ccc2c(c1)OCO2)c1ccc(Cl)cc1,active: 3.16 µM
6,CC(C)c1ccc(C(=O)Nc2cccc3cccnc23)cc1,"inconclusive [activator, single point]"
7,CCOc1ccccc1NC(=O)CSc1nnnn1-c1ccccc1,"inconclusive [activator, partial curve]"
8,CCCCN1CCN=C1Nc1ccccc1,"inconclusive [activator, partial curve]"
9,COc1ccc(Cl)cc1Nc1ncnc2c1nc1n2CCCC1,inactive
10,Cc1oc(C)c(C(=O)O)c1C(=O)O,inactive
11,COC[C@@H]1CCCN1c1ccc2c(c1)O[C@H](COCc1ccccc1)CN([C@H](C)c1ccccc1)S2(=O)=O,inactive
12,COc1ccc(C2NC(=O)C(C#N)=C(S)N2c2ccc(C)cc2)cc1OC (centres undefined),inactive
13,Cc1nc2ccc3nc(NC(=O)c4ccc5c(c4)OCCO5)sc3c2s1,inactive
14,Cc1cnc(C(=O)OC(C(=O)Nc2cc(C(F)(F)F)ccc2Cl)c2ccccc2)cn1 (centres undefined),active: 17.8 µM
15,Cc1cc(C)n(-c2nc(NCCO)c3c4c(sc3n2)CCCC4)n1,"inconclusive [activator, partial curve]"
16,CCCOC(=O)c1ccc(-n2nnnc2SCC(=O)N2CCCCC2)cc1,"inconclusive [activator, single point]"
17,C=C1C(=O)O[C@H]2C[C@]3(C)C([C@@H](OC(=O)/C(C)=C/C)[C@H]12)[C@](C)(O)CC[C@H]3O (some centres undefined),"inconclusive [activator, partial curve, poor fit]"
18,CCCCn1c(CCC)nc([N+](=O)[O-])c1Sc1ccc(Cl)cn1,"inconclusive [activator, partial curve]"
19,COC(=O)C1=CN(C(C)C)C=C(C(=O)OC)C1c1cccc(OC)c1,inactive
20,CCOC(=O)C1CCN(C(=O)CSc2c3c(nc4ccc(Cl)cc24)CCCC3)CC1,"inconclusive [activator, single point]"
21,CC(=O)Nc1ccc(C(=O)CSc2nnc3cc(C)c4ccccc4n23)cc1,inactive
22,C=CCOc1ccc(CN(C)C(=O)CNC(=O)c2ccc(-c3ccccc3)cc2)cc1,"inconclusive [activator, partial curve]"
23,COCCNC(=O)/C(C#N)=C/c1cccc(/C=C(\C#N)C(=O)NCCOC)c1,"inconclusive [activator, single point]"
